Source: publication PMC10648259
Positions count from the first letter of the chain named. Results are given in words; binding and its absence hold for the method and conditions named. Binding seen in cells or lysates may run through a third protein. Some entries that bind do so weakly or less than the wild type. Tags and fused reporters may be left off the sequences shown.

Legend:
Flag-GBP2^K51A (mouse) = biological target: T1, Flag-GBP2^K51A (mouse) (UniProt Q9Z0E6); assay: co-IP
T1 sequence: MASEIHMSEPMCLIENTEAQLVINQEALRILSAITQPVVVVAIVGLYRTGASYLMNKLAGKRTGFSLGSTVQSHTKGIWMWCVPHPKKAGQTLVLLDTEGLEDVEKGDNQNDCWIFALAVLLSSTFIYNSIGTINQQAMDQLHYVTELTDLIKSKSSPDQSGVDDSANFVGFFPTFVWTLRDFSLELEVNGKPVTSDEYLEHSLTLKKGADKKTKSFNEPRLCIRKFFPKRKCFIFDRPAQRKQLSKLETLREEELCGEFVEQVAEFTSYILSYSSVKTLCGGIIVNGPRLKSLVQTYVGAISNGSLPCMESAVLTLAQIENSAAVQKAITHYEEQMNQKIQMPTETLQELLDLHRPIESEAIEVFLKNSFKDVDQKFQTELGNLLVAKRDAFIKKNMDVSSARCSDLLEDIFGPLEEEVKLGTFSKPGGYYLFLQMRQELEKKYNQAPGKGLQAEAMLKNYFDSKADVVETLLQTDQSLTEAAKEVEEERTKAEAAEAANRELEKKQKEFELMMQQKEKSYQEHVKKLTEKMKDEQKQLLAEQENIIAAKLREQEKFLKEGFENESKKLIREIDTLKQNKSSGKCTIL

Flag-GBP2^R48A (mouse) = biological target: T2, Flag-GBP2^R48A (mouse) (UniProt Q9Z0E6); assay: co-IP
T2 sequence: T1 sequence with R48A, A51K

Substance: HA-PAPL (HA-tagged poly(A) polymerase catalytic subunit of ECTV) (from UniProt Q8JLG4 1-479)
- binding (Flag-GBP2^K51A (mouse)): no binding
- binding (Flag-GBP2^R48A (mouse)): binds
